In the test the test system is NCI-H322M lung. Description: DTP human tumour cell line panel, 48 h.

Several values for one entry are separate records, joined by “and”; a condition that tells them apart may be missing. Identical values can stand only once.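 Dose response: 5 concentrations. Exposure: 48 h. Format: 96-well plates. Endpoint: linear interpolation; highest concentration if not reached. The concentration for 50% growth inhibition is given as GI50. The concentration for full growth arrest is given as TGI.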

Usually GI50 stands for the concentration at which growth is held to half of that of the control. One may read the TGI as the concentration giving total growth inhibition. Read a high TGI as lower sensitivity of the cells. As for `COc1cc(N(CCC#N)CCC#N)ccc1/C(N=Nc1ccc(Cl)cc1)=N/NC(=O)c1cc(Br)ccc1O`, the GI50 is 97.8 µg/mL and the TGI is > 150 µg/mL. Turning to `O=C(Cc1ccc(F)c(Cl)c1)Nc1cc(C2(C(F)(F)F)CC2)nn1CC1CCCCC1`, the GI50 is 4.06 µM and the TGI is > 15 µM.

As to `CN(C)CC[C@H](CSc1ccccc1)Nc1ccc(S(=O)(=O)NC(=O)c2ccc(N3CCN(Cc4ccccc4-c4ccc(Cl)cc4)CC3)cc2)cc1[N+](=O)[O-]`, the GI50 is 2.32 µM and the TGI is > 28.5 µM.

With `O=C(/C(=C/c1ccc(Cl)cc1)c1ccccc1)c1ccccc1`, the TGI was determined as 82.7 µM. With `CC1=Cc2cccc(C)c2C(=O)C1=O`, the TGI is 56.1 µM.

For the compound `NC(N)=N/N=C/c1c(Cl)cccc1Cl`, the GI50 is 20.5 µM and the TGI came out at 63.4 µM. On to `NCCCN1c2ccccc2Sc2ccc(Cl)cc21`, for which the TGI was > 10 µM. Still for that read-out and setting: next, `Cc1cccc(C)c1NC(=O)C(Cc1c[nH]c2ccccc12)NC(=O)OCc1ccccc1` (stereo unspecified): 52 µM; `COC(=O)/C(C#N)=C1\N=NNN1c1ccc(OC)cc1`: > 100 µM.

For `NC1CCN(Cc2ccccc2)CC1`, the GI50 is > 100 µM and the TGI was > 100 µM. Consider `CC(O)CNC(=O)C(C)Oc1ccc(OCC2CCCCC2)cc1` (stereo unspecified), for which the TGI was > 100 µM. Same read-out and setting: next, `CCOC(=O)c1ccc(/C(C)=N/NC(N)=S)cc1`: > 100 µM; `CN1CCC(=O)/C(=C/c2ccccc2)C1`: 31 µM; `O=C(O)CN1CCNCCN(CC(=O)O)CCN(CC(=O)O)CCNCC1`: > 100 µM. Turning to `CCOc1cc(/C=C2/C(C)=NN(c3cccc(Cl)c3)/C2=N/c2nc3ccccc3s2)ccc1O`, the TGI was > 100 µM. On the same count and under the same terms, next, `COc1cc2c(cc1OC)C1C3CCCCC3CCN1CC2` (stereo unspecified): > 100 µM; `Cc1nn(-c2ccccc2)c2c1C(c1cc3ccccc3nc1Cl)NC(=O)N2` (stereo unspecified): > 100 µM. For the compound `CNCCOC(=O)/C=C1\CC[C@H]2[C@@H]([C@@H](O)C(=O)[C@@H]3[C@]2(C)CC[C@H](O)[C@]3(C)C(=O)OC)[C@H]1C`, the GI50 was 0.388 µM and the TGI was determined as 1.85 µM.

`C=CCCCCC1CCC2CCC(CCCCC=C)N12` (stereo unspecified) gave a TGI of 33.7 µM. The same measure, in the same setting: in the case of `N#CC(C#N)=C1SC(=Nc2ccccc2)C(=Nc2ccccc2)N1c1ccccc1` it was > 100 µM; in that of `CC1=CCC([C@@](C)(O)CCCC(C)(C)N=C=S)CC1` (stereo partly specified), 32.7 µM; in that of `Cc1ccc(C)c(NC(=O)c2cccc([N+](=O)[O-])c2O)c1`, 74.3 µM.

As for `CC(C)(/C=C(\C#N)C(=O)N1CCC[C@@H](n2nc(-c3ccc(Oc4ccccc4)cc3F)c3c(N)ncnc32)C1)N1CCN(C2COC2)CC1`, the GI50 was 10.8 µM and the TGI was found to be 22.9 µM.

Turning to `NNC(=O)CNc1cccc(Br)c1`, the TGI is > 100 µM. On the same count and under the same terms, next, `CSc1cc(-c2cccs2)sc1-c1cc(SC)c(-c2sc(-c3sc(-c4cccs4)cc3SC)cc2SC)s1`: > 100 µM; `CCNC(=S)NNC(=O)C12CC3CC(CC(C3)C1)C2`: > 100 µM; `CN(C)CCC(/C=C/c1ccccc1)=N\Nc1ccccc1`: 22.8 µM.

As to `CCOC(=O)c1c(-c2ccc(O)c(OC)c2)c(C#N)c(=S)n(C2OC(CO)C(O)C(O)C2O)c1-c1ccccc1` (stereo unspecified), the concentration for total growth inhibition (TGI) was > 100 µM. Take `C=C(C(=O)OCC)C(=O)OCC`: the TGI is > 100 µM. On to `CC(=O)Nc1ccc(-c2csc(Nc3cccc(-c4csc(C)n4)c3)n2)cc1`, for which the GI50 is 0.33 µM and the total growth inhibition concentration (TGI) was 9.5 µM. Turning to `C=C1CC(C#N)(C#N)[C@H]2C3CCCC3C[C@@H]12` (stereo partly specified) (tested in a mixture with another compound), the TGI is > 100 µM. As for `Nc1ncn([C@@H]2O[C@H](CO)[C@@H](O)[C@H]2O)c(=O)n1`, the GI50 is 0.964 µM and the TGI worked out at 69.7 µM.

For `CCOS(C)(=O)=O`, the TGI was > 100 µM. Take `O=S(=O)(O)C(CO)c1ccccc1` (stereo unspecified) (tested in a mixture with another compound): the TGI was > 100 µM. Consider `CCCC(=O)Nc1cn(COC)c(C(=O)N2C[C@@H]3C[C@]34C2=CC(=O)c2[nH]cc(C)c24)n1`, for which the GI50 was 19 µM; the TGI is 33.2 µM and > 100 µM. Regarding `O=C1CCC(c2ccccc2)=NN1c1nsc2ccccc12`, the TGI is > 100 µM. As for `O=[N+]([O-])c1ccc2occ3c2c1CCC3`, the TGI is > 100 µM.

For the compound `CC1(C)OC[C@@H](O)[C@H](C#N)CO1`, the TGI is > 100 µM.

As to `C#CC1/C(=C\C(=O)OC)CCCC1O` (stereo unspecified), the TGI is > 100 µM. For the compound `C[C@H](CCC(=O)O)[C@H]1CC[C@H]2[C@@H]3C(=O)C[C@@H]4C[C@H](O)CC[C@]4(C)[C@H]3C[C@H](O)[C@]12C`, the TGI was > 100 µM. In turn, `C/C(N=NC(=S)N1CC2CCC(CC2)C1)=C1\C=CC=CN1O` had a TGI of 97.5 µM. In the case of `O=C(/C=C/c1ccc[nH]1)c1ccc(-n2ccc(C(F)(F)F)n2)cc1`, the GI50 is > 100 µM and the TGI is > 100 µM. `CSc1nc(SC)c2c(C#N)[nH]nc2n1`: the total growth inhibition concentration (TGI) was > 100 µM. On the same count and under the same terms, in the case of `COc1ccc(N2C(=O)CC(=O)N(NC(=O)C(C)Oc3ccccc3C)C2=S)cc1` (stereo unspecified) it was > 100 µM; in that of `NS(=O)(=O)c1ccc(N=Nc2c(O)c(C(=O)O)cc3ccccc23)cc1`, > 100 µM; in that of `Cc1nc(C)c(C(=O)NNC(=O)C[N+](C)(C)C)cc1C(=O)NNC(=O)C[N+](C)(C)C`, > 100 µM. With `COc1cc(O)c2c(c1)C(=O)c1cc3c(c(O)c1C2=O)C(OC1OC(C)C(OC)C(O)C1OC)C(OC)C(C)(O)C3=O` (stereo unspecified), the TGI is > 100 µM. For the compound `O=C(NC[C@H](O)CN1CCc2ccccc2C1)c1cc(NC2COC2)ncn1`, the GI50 is 22.7 µM and the TGI was > 100 µM. The corresponding values for `CCN1CCN(c2cc(C)c3cc(NC(=O)c4ccc(OC)c(OC)c4)ccc3n2)CC1` are > 66.6 µM and > 100 µM. Turning to `O=C(c1ccco1)c1c(C(F)(F)F)nc2ccc(Cl)cc2[n+]1[O-]`, the GI50 was > 100 µM and the TGI is > 100 µM. As to `CCOC(=O)N1CCC(N[C@@H]2c3cc4c(cc3C(c3cc(OC)c(O)c(OC)c3)C3C(=O)OC[C@@H]32)OCO4)CC1` (stereo partly specified), the TGI was 50 µM and > 25 µM. On the same count and under the same terms, next, `CC(=NNC(=S)Nc1ccccc1)c1cccc(C(C)=NNC(=S)Nc2ccccc2)n1`: > 31.1 µM; `COc1ccc(-c2nc(SCC(=O)NNC(=S)Nc3ccccc3)[nH]c2-c2ccc(OC)cc2)cc1`: 92.6 µM. The same measure, in the same setting: in the case of `O=C(Nc1cccc(Cl)c1)C(=O)C(C(=O)c1ccc2ccccc2c1)C1OC(=O)c2ccccc21` (stereo unspecified) it was 59.6 µM; in that of `S=C1NC2=C(CSC/C2=C\c2cccc(Br)c2)C(c2cccc(Br)c2)N1` (stereo unspecified), > 100 µM. As for `O=c1oc2ccc(-c3ccc(F)cc3F)cc2c(=O)n1-c1cccc(C(F)(F)F)c1`, the GI50 was 1.46 µM and the TGI came out at 15.4 µM.

Turning to `CC(C)(C)[Si](C)(C)OCC1OC(n2ccc(=O)[nH]c2=O)C(O[Si](C)(C)C(C)(C)C)/C1=C/C#N` (stereo unspecified), the TGI was > 100 µM. On to `Clc1ccc(-c2nnc3sc4nc5ccccc5c-4nn23)c(Cl)c1`, for which the TGI was > 100 µM. Same read-out and setting: next, `Cc1c(/C=N\NC(=S)NCCNC(=S)N/N=C\c2c(C)n(C)n(-c3ccccc3)c2=O)c(=O)n(-c2ccccc2)n1C`: > 100 µM; `CC(C)c1cc2c(c(O)c1O)[C@@]1(C(=O)O)CCCC(C)(C)[C@@H]1CC2`: > 100 µM. Same read-out and setting: next, `O=C(O)C(Cl)(Cl)Cl`: > 100 µM.

Source of the values: PubChem BioAssay (NCI).
